# Test results from the supplement of paper PMC8512760.
# Counter-ions that a name gives are not always drawn. Some of the results follow. Repeats are few or missing, and single values can be far off.
# How the values were obtained:
# Assay in all cases: cell viability relative to vehicle (% of vehicle); basal-like triple-negative breast cancer lines; higher = less cytotoxic
# Settings in all cases: 10 µM; 72 h
# HCC-1143 = test system: HCC-1143
# HCC-1187 = test system: HCC-1187
# MDA-468 = test system: MDA-468
# SUM-149 = test system: SUM-149
# 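Note: stably firefly luciferase-GFP labeled cells in 96-well plates, viability read as luciferase photon flux after d-luciferin addition, treated wells normalized to vehicle wells, single-dose high-throughput screen.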
SMILES,cell viability (HCC-1143),cell viability (HCC-1187),cell viability (MDA-468),cell viability (SUM-149)
CCOc1nc2cccc(C(=O)OC(C)OC(=O)OC3CCCCC3)c2n1Cc1ccc(-c2ccccc2-c2nn[nH]n2)cc1 (configuration not stated) [Candesartan Cilexetil],104,78.9,99.8,138
Cc1ccc(-c2ncc(Cl)cc2-c2ccc(S(C)(=O)=O)cc2)cn1 [Etoricoxib],78.2,107,103,92.3
COC(=O)C1=C(C)NC(C)=C(C(=O)OCC(C)C)C1c1ccccc1[N+](=O)[O-] (configuration not stated) [Nisoldipine],81.7,74.7,97,103
COc1ccc(CN(CCN(C)C)c2ccccn2)cc1.O=C(O)/C=C\C(=O)O [Mepyramine maleate],87.9,90.5,113,120
[O-][n+]1cccc(CO)c1 [Mepiroxol],135,90.2,114,108
CC(C)C1CCC(C(=O)NC(Cc2ccccc2)C(=O)O)CC1 (configuration not stated) [Nateglinide],110,87.1,96.6,119
NCC(=O)CCC(=O)O [5-Aminolevulinic acid HCl],120,121,94.1,102
NCCCCCC(=O)O [(6-)ε-Aminocaproic acid],81.5,96.8,86.7,98
Cc1ccsc1C(=CCCN1CCC[C@@H](C(=O)O)C1)c1sccc1C [Tiagabine hydrochloride],71.2,71.2,118,131
COc1ccc(O)cc1 [Mequinol],76.7,98.2,103,79.7
O=C(CS(=O)Cc1ccco1)NCC=CCOc1cc(CN2CCCCC2)ccn1 (configuration not stated) [Lafutidine],90.5,94.7,102,133
CS(=O)(=O)OCCCCOS(C)(=O)=O [Busulfan],74.5,94.5,99.6,121
Cc1cc2c(cc1S(N)(=O)=O)S(=O)(=O)CCC2 [Meticrane],64.8,86.6,106,106
O=C(Nc1nc2cccc(-c3ccc(CN4CCS(=O)(=O)CC4)cc3)n2n1)C1CC1,65.7,51.8,102,111
COc1ccc2cc(CCC(C)=O)ccc2c1 [Nabumetone],181,141,188,184
Cl.O=C(O)C=Cc1ccc(Cn2ccnc2)cc1 [Ozagrel HCl],81.7,91.1,112,113
CC(C)Cc1ccc(C(C)C(=O)O)cc1 (configuration not stated) [Ibuprofen],83.4,76.9,99.1,106
NCC1OC(OC2C(N)CC(N)C(OC3OC(CO)C(O)C(N)C3O)C2O)C(N)CC1O (configuration not stated) [Tobramycin],69.5,93.4,110,99.3
COc1ccc2c(c1)c(CC(=O)O)c(C)n2C(=O)c1ccc(Cl)cc1 [Indomethacin],81.7,78.5,102,101
CCC1(O)CC2CN(CCc3c([nH]c4ccccc34)C(C(=O)OC)(c3cc4c(cc3OC)N(C)C3C(O)(C(=O)OC)C(OC(C)=O)C5(CC)C=CCN6CCC43C65)C2)C1 (configuration not stated) [vinblastine],68.3,52.2,73.4,121
CCCCOc1cc(C(=O)NCCN(CC)CC)c2ccccc2n1.Cl [Dibucaine (Cinchocaine) HCl],84.9,97.3,101,89.6
Cc1nc(C(=O)NCC(=O)O)c(O)c2ccc(Oc3ccccc3)cc12,87.9,87.4,101,132
CN(C)CC=CC(=O)Nc1cc2c(Nc3ccc(F)c(Cl)c3)ncnc2cc1OC1CCOC1 (configuration not stated) [Afatinib (BIBW2992)],24.3,22.9,30,28.2
O=C([O-])P(=O)([O-])[O-].[Na+].[Na+].[Na+] [Foscarnet Sodium],99.6,116,107,97.1

SMILES,cell viability (HCC-1143),cell viability (HCC-1187),cell viability (MDA-468),cell viability (SUM-149)
COc1cc2nccc(Oc3ccc(NC(=O)Nc4cc(C)on4)c(Cl)c3)c2cc1OC [Tivozanib (AV-951)],87.6,76.6,90.7,111
COc1ccc2[n-]c(S(=O)Cc3ncc(C)c(OC)c3C)nc2c1.COc1ccc2[n-]c(S(=O)Cc3ncc(C)c(OC)c3C)nc2c1.[Mg+2] (configuration not stated) [Esomeprazole Magnesium],125,82.3,101,137
CC1=C(CC(=O)O)c2cc(F)ccc2C1=Cc1ccc(S(C)=O)cc1 (configuration not stated) [Sulindac],103,72.2,89.8,103
C=C1CCC(O)CC1=CC=C1CCCC2(C)C1CCC2C(C)C=CC(C)C(C)C (configuration not stated) [Vitamin D2 (Ergocalciferol)],72.3,106,109,117
CC(=O)OCC(=O)C1(O)C(C)CC2C3CCC4=CC(=O)C=CC4(C)C3(F)C(O)CC21C (configuration not stated) [Dexamethasone acetate],76.7,79.2,96.8,187
CCc1cc(C(C)=NOCc2ccc(C3CCCCC3)c(C(F)(F)F)c2)ccc1CN1CC(C(=O)O)C1 [BAF312 (Siponimod)],74,78.7,89.1,88.3
Cl.NNc1nncc2ccccc12 [Hydralazine HCl],83.8,71.9,99.4,63
CC(C)CCCCC(=O)N[C@@H](CCN)C(=O)N[C@@H](CN[C@@H](CCN)C(=O)N[C@H]1CCNC(=O)[C@H]([C@@H](C)O)NC(=O)[C@H](CCN)NC(=O)[C@H](CCN)NC(=O)[C@H](CC(C)C)NC(=O)[C@@H](CC(C)C)NC(=O)[C@H](CCN)NC1=O)[C@@H](C)O.CCC(C)CCCCC(=O)N[C@@H](CCN)C(=O)N[C@@H](CN[C@@H](CCN)C(=O)N[C@H]1CCNC(=O)[C@H]([C@@H](C)O)NC(=O)[C@H](CCN)NC(=O)[C@H](CCN)NC(=O)[C@H](CC(C)C)NC(=O)[C@@H](CC(C)C)NC(=O)[C@H](CCN)NC1=O)[C@@H](C)O (some centres not stated) [Colistin Sulfate],134,95.4,93,91.5
O=c1ccc2ccccc2o1 [Coumarin],94,88.7,108,108
CN(C)CCCC1(c2ccc(F)cc2)OCc2cc(C#N)ccc21.O=C(O)C(=O)O (configuration not stated) [Escitalopram Oxalate],76.7,101,112,88.9
CC(COc1ccccc1)N(CCCl)Cc1ccccc1.Cl (configuration not stated) [Phenoxybenzamine HCl],90.9,118,124,114
CCC(C(C)O)n1ncn(-c2ccc(N3CCN(c4ccc(OCC5COC(Cn6cncn6)(c6ccc(F)cc6F)C5)cc4)CC3)cc2)c1=O (configuration not stated) [Posaconazole],89,84.4,71.9,102
OCC(CO)NC1CC(O)(CO)C(O)C(O)C1O (configuration not stated) [Voglibose],69.5,84.9,109,138
C[N+](C)(C)CC(O)CC(=O)[O-] [L-Carnitine inner salt],98.6,87.6,121,112
O=C([O-])C(O)C(O)C(O)C(O)C(O)CO.O=C([O-])C(O)C(O)C(O)C(O)C(O)CO.[Ca+2] (configuration not stated) [Calcium Gluceptate],118,130,113,104
CC(=O)OC1(C(C)=O)CCC2C3CCC4=CC(=O)CCC4=C3C(c3ccc(N(C)C)cc3)CC21C (configuration not stated) [Ulipristal acetate],78.6,78.4,97.3,106
COc1cc(C2c3cc4c(cc3C(OC3OC5COC(c6cccs6)OC5C(O)C3O)C3COC(=O)C23)OCO4)cc(OC)c1O (configuration not stated) [Teniposide],86.8,83.9,107,86.7
COc1cc(C)c(C=CC(C)=CC=CC(C)=CC(=O)O)c(C)c1C [Acitretin],88.2,102,80.8,93
COc1ccc2c(O[C@H]3CC4C(=O)N(C)CCCC/C=C\[C@H]5C[C@@]5(C(=O)NS(=O)(=O)C5CC5)NC(=O)[C@@H]4C3)cc(-c3nc(C(C)C)cs3)nc2c1C (some centres not stated) [Simeprevir],79.3,82.6,84.6,109
CC(CCC(=O)O)C1CCC2C3C(O)CC4CC(O)CCC4(C)C3CCC12C (configuration not stated) [Ursodiol],81,85.8,94,119
CCN(CC)CC#CCOC(=O)C(O)(c1ccccc1)C1CCCCC1.Cl (configuration not stated) [Oxybutynin chloride],98.9,80.5,138,120
CN(C)C(=O)NC1CCC(CCN2CCN(c3cccc(Cl)c3Cl)CC2)CC1 (configuration not stated) [Cariprazine],86.9,93.1,88.6,120
CC(=O)Oc1cc(C(F)(F)F)ccc1C(=O)O [Triflusal],104,85.8,106,95.3
CC(=O)Nc1ncc([N+](=O)[O-])s1 [Nithiamide],70.2,83.2,112,88.4
